Test results taken from PubChem BioAssay AID485344 (National Center for Advancing Translational Sciences (NCATS), 2010).
Out of some 340,000 compounds screened, about 6,900 (2%) were called active. No stated cut-off is given here; in the data, active means inhibition above about 30%; inactive means below that, where a call was filed. Only a part is listed here, and it is no random draw. The source gives no active or inactive call for entries shown without one.

Molecular target: D(2) dopamine receptor (Homo sapiens) (UniProt P14416)
Assay: HTS Assay for Allosteric Antagonists of the Human D2 Dopamine Receptor: Primary Screen for Antagonists; further: 0% is about no effect
Conditions: HEK293 TREx D2 cells, calcium flux, dopamine EC80; at 10 µM; stronger effect = higher value
Outline: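 Dopamine at EC80 is the agonist stimulus; test compounds precede it by 180 s. Calcium flux read kinetically in a force-coupled, inducible HEK293 T-REx D2 cell line.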

Chain of UniProt P14416 (P14416 whole entry, looked up): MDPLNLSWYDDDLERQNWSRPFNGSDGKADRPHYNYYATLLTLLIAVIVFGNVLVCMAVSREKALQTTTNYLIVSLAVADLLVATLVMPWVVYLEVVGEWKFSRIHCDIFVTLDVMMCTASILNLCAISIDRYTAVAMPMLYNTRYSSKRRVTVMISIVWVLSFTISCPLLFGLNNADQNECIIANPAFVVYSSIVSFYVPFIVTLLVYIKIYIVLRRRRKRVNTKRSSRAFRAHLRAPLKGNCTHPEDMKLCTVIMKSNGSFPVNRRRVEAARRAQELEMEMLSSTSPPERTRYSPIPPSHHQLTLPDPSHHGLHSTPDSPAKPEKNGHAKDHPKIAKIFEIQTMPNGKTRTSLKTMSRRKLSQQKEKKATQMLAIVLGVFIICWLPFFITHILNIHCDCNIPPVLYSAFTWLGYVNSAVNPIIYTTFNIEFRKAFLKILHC

In order of rising inhibition:
1. O=C(CSc1nc(-c2ccc(F)cc2)[nH]c1-c1ccccc1)NCC1CCCO1 (centres undefined)  -28.2%
2. Cc1ccc(NC(=O)c2oc3ccccc3c2NC(=O)c2ccccc2C)cc1  -21.2%
3. Cc1ccc(CNC(=O)CSc2cc(C)[nH]c(=O)n2)cc1  -18.4%
4. O=C(CCN1N=C(c2ccccc2)CCC1=O)NCCc1ccc(Cl)cc1  -16.1%
5. COc1ccc(C2C(=O)N(C3CCCCCC3)CC(=O)N2Cc2ccc(C)cc2)cc1OC (centres undefined)  -14.3%
6. COc1ccc(-c2nnc(SCC(=O)NCc3ccc(C)cc3)nc2-c2ccc(OC)c(OC)c2)cc1OC  -12.5%
7. COc1ccc(CCNC(=O)c2ccc3c(c2)N(Cc2ccccc2F)C(=O)c2ccccc2S3(=O)=O)cc1OC  -11.7%
8. CCn1c(=O)c2sccc2n2c(CCCC(=O)N3CCN(c4cc(Cl)ccc4C)CC3)nnc12  -10.9%
9. CC(=O)Nc1ccc(NC(=O)CSc2nc3ccccc3nc2N2CCOCC2)cc1  -10.7%
10. CCc1ccc(NC(=O)CN(c2ccc(OC)cc2)S(=O)(=O)c2c(C)[nH]c(=O)[nH]c2=O)cc1  -9.9%
11. CCOC(=O)c1c(-c2ccc(C)cc2)csc1NC(=O)c1nc(SCC)ncc1Cl  -9.84%
12. COCCN1C(=O)c2[nH]nc(-c3ccccc3O)c2C1c1ccc(Cl)c(Cl)c1 (centres undefined)  -7.97%
13. CSc1nnc(NC(=O)Cc2coc3cc(C)ccc23)s1  -7.97%
14. CCOC(=O)c1cnc2c(ccc3ccccc32)c1Nc1cccc(OC)c1  -7.54%
15. Cc1nn(C(=O)c2c(F)cccc2F)c(C)c1S(=O)(=O)N1CCOCC1  -6.18%
16. Nc1cccc(-c2cn3ccsc3n2)c1  -4.97%
17. COc1ccc(S(=O)(=O)N2CCC(Oc3ccc(-n4cnnn4)cc3)CC2)cc1OC  -4.42%
18. Cc1cc(C)c(NC(=O)CSc2nc3nc(C)cc(C)n3n2)c(C)c1  -4.18%
19. O=C(NCCc1ccccc1)c1cc(S(=O)(=O)N2CCCCC2)c[nH]1  -3.95%
20. CCS(=O)(=O)N1CCC(n2c(C(F)(F)F)nc3cccnc32)CC1  -2.91%
21. Oc1c(C(c2ccccc2Cl)N2CCCC2)sc2nc(-c3ccco3)nn12 (centres undefined)  -2.66%
22. O=c1c2c(-c3ccccc3)ccnc2[nH]n1-c1ccccc1  -2.39%
23. CCOC(=O)c1c(-c2ccccc2)oc2ccc(NS(=O)(=O)c3ccc(C)cc3C)cc12  -2.2%
24. CCOc1ccc(N(CC(=O)NCc2ccccc2Cl)S(=O)(=O)c2c(C)[nH]c(=O)[nH]c2=O)cc1  -1.86%
25. COc1ccc(Cn2c(=O)c3cccnc3n(Cc3cccc(OC)c3)c2=O)cc1  -0.579%
26. CCN(CC)c1cc(C)c2cc(NC(=O)c3ccccc3OC)ccc2n1  1.22%
27. CCCCOc1cccc(C2c3c(oc4ccccc4c3=O)C(=O)N2c2ccccn2)c1 (centres undefined)  1.68%
28. Cc1nn(-c2ccccc2)c2nc(C3CC3)cc(C(=O)Nc3ccccc3F)c12  3.44%
29. CCOc1ccc(C(=O)c2cn(Cc3ccccc3OC)c3ccc(F)cc3c2=O)cc1  4.49%
30. COc1ccc(-c2noc(CNC(=O)c3ccco3)n2)cc1  4.63%
31. COc1ccccc1N1CCN(c2ncccc2-c2nc(-c3ccc(Cl)cc3)no2)CC1  5.67%
32. Cc1ccc(NC(=O)/C=C/c2ccc(C)o2)c(C)c1  5.78%
33. Cc1cc(C(F)F)n2nc(C(=O)Nc3c(C)cccc3C)nc2n1  7.23%
34. COc1ccc(-n2c(CC3C(=O)N(C)c4ccc(C)cc43)nc3ccccc3c2=O)cc1 (centres undefined)  8.77%
35. O=C(NCc1ccco1)c1ccc2c(c1)N(Cc1cccc(Cl)c1)C(=O)c1ccccc1S2(=O)=O  9.75%
36. CCCC1=Nc2cc(C(=O)NC(C)c3ccccc3)ccc2Sc2ccc(C)cc21 (centres undefined)  9.95%
37. Fc1ccc(CN2CCc3nc(Nc4ccccc4)ncc3C2)cc1F  10.2%
38. CCCCn1c(SCC(=O)NCCCOC)nc2c(sc3ccccc32)c1=O  17.4%
39. CCc1ccc(C(=O)c2cn(CC(=O)Nc3ccc(OC)c(OC)c3)c3ccc(C)cc3c2=O)cc1  21.8%

`COc1ccccc1C1CCN(Cc2ccc(C)cc2)CC1` was tested, and the inhibition was active: 95.1%.
With `COc1cc(CN2CCN(CCCc3ccccc3)CC2CCO)cc(OC)c1` (centres undefined) the inhibition was active: 65.3%.
`Clc1ccccc1CN1CCN(c2ncccn2)CC1` was tested, and the inhibition was active: 75.8%.
`O=S(=O)(c1ccccc1)N1CCN(C(=S)NCCc2ccccc2)CC1` was tested, and the inhibition was active: 38.4%.
`Cc1ccccc1OCC(=O)OCC(=O)Nc1ccc(Cl)cn1` was tested, and the inhibition was active: 30.6%.
`CCCn1c(N)c(NCCN2CCOCC2)c(=O)n(CC(=O)NCc2ccccc2)c1=O` was tested, and the inhibition was active: 32.7%.
With `Cc1cccc(N(C)S(=O)(=O)c2ccc3c(c2)C(C)(C)C(=O)N3C)c1` the inhibition was active: 40.9%.
`COc1ccc(NC(=O)c2cc(S(=O)(=O)N3CCCC3)cn2C)cc1Cl` was tested, and the inhibition was active: 38%.
For `CN(C)Cc1c(C(=O)Nc2ccccc2)[nH]c2ccccc12`, the inhibition was active: 45%.
With `CCn1nnnc1-c1ccc(OC)c(S(=O)(=O)Nc2ccc(OC)cc2)c1` the inhibition was active: 36.5%.
